The values that follow come from paper PMC10726135.

Some of the results follow. At the low end of the ranking, values are background and their order means little. Measured with an extract: partners may take part in the binding.

This test deals with T1, HNF4alpha8 (COS-7 nuclear extract) (UniProt P41235-5).
T1 sequence: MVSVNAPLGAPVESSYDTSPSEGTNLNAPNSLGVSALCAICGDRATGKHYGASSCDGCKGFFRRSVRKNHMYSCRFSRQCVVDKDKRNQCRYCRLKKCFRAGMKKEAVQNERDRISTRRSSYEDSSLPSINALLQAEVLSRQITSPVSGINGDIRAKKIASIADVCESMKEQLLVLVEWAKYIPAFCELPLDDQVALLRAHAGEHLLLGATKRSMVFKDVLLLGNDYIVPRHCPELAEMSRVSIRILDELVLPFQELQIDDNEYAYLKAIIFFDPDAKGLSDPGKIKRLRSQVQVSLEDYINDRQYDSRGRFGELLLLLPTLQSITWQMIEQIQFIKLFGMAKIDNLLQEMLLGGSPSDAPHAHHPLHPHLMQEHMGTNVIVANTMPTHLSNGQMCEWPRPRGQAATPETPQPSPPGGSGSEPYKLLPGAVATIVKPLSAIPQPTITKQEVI
The test is described as follows: protein-binding microarray. As to conditions: COS-7 nuclear extract on double-stranded Agilent 4x180k PBM; binding buffer, salt, pH and temperature not given; high values mean tight binding; double strand, one strand shown; sequences stand for … in …GCCTAGGGAGATTAGAGTATCGGTCGA
With CTGTACCCTATGCACCCCACAGTGCTGTTT, the binding signal (log2 normalized intensity) amounted to 1.71.

Regarding CTTGGTGCCTCTGAGCTAAGATAACCATCA, the binding signal (log2 normalized intensity) is -1.38.

In the case of CTGTCTAATTTTGCACAGCCAGCCTGAGGC, the binding signal (log2 normalized intensity) was -1.24.

Take AAACAGGGACAGATGTTTGGTTGAGCAAGC: the binding signal (log2 normalized intensity) is -1.35.

Regarding TAGCTAAGCTTCACTGACATTCCAGCCACT, the binding signal (log2 normalized intensity) is -1.46.

TTATCTTGGAACCTCAAGAGGAGAAGAATT: the binding signal (log2 normalized intensity) is -1.25.

Consider GCATTCCACCAAATCTTACCTAAGGAAGTT, for which the binding signal (log2 normalized intensity) is -1.22.

Regarding AGATTGCTCAGAGGCACAGTCTGCTTTCAG, the binding signal (log2 normalized intensity) was -1.38.

As to ACTGAACCCAGGCATACTCAGTTATCAACC, the binding signal (log2 normalized intensity) is -1.2.

Regarding ATGGCCGCTCCGCGAGGTGAGCCATTGGCT, the binding signal (log2 normalized intensity) is -1.31.

On to AACTGCAAGGAAATCTGGGAAATGTAGCTT, for which the binding signal (log2 normalized intensity) was -1.16.

Turning to CCCTATGTGTTTCTTCTGCTTCCCTAGGGA, the binding signal (log2 normalized intensity) was 0.254.

GAGCAAAAAGGCCGTTCAAAGGCAGCCTTC: the binding signal (log2 normalized intensity) was -1.42.

Regarding GGCGACATCAAAGCATTTGGAGATTGCCAC, the binding signal (log2 normalized intensity) is -1.27.

With AGAGCATCTGAGTGTCAAAAACAATACCAG, the binding signal (log2 normalized intensity) was -1.34.

In the case of TCCGGAGAACACGGAGTCCTTCTGGGGCTA, the binding signal (log2 normalized intensity) was -1.36.

For TAAACAACACAGAACTAGCCAGACCTGTTC, the binding signal (log2 normalized intensity) was -1.41.

With GATCAAGCAGGTGACCTTCGATCACCTCAA, the binding signal (log2 normalized intensity) was found to be 5.59.

Regarding GAGCAGTGGGAGGTGAGGAAAACGGAGACA, the binding signal (log2 normalized intensity) was -1.38.

TGCCTCCTAAGGCCTCCAGAAGGAATGCAG: the binding signal (log2 normalized intensity) was -1.29.

Take CCCCCAGTGCACCTTAATAAGCACATTCCT: the binding signal (log2 normalized intensity) came to 1.26.

As for AAGTCCACGTGAGAGGGTCGTGATCGATTG, the binding signal (log2 normalized intensity) stood at 1.86.

With CAGGAGATGTGTGAAGGACACAGAATGACT, the binding signal (log2 normalized intensity) was -1.37.

For the sequence CACACTGCAGCAAAACTTTAGGACTTTGAA, the binding signal (log2 normalized intensity) was 4.12.

Consider ACCCGTGCTTGGAATGCTATTTGCATTGAC, for which the binding signal (log2 normalized intensity) is 1.04.

For the sequence CCCCTGGCCTCACCCTTGTCCCTGAGGCTG, the binding signal (log2 normalized intensity) amounted to 1.97.

As to TCCCCATTCCTAAGTTCCAAAGGCCATCCA, the binding signal (log2 normalized intensity) came to 3.93.

As to TTATATCAGAGGAATGTCTGACCAACCTGT, the binding signal (log2 normalized intensity) amounted to 0.807.

TGTGACCTTTGGAAGGTGGGGGAGGAGACA: the binding signal (log2 normalized intensity) was 3.69.

For TGCTTGGCCTCTCCACTTGGGTATCAGATA, the binding signal (log2 normalized intensity) was found to be 0.526.

Turning to ACTACTGCTTTAGGCCTCAAGACAAACAAT, the binding signal (log2 normalized intensity) is -1.28.

With GAATAATCCCCTCCTGGACTTTGGTCTCAT, the binding signal (log2 normalized intensity) came to 8.

Consider TCTGACCAGGCTGATTTAGCTATTTGACCT, for which the binding signal (log2 normalized intensity) worked out at 4.7.

In the case of GAGAGAATGACCCTTGCTTGACCCATTATG, the binding signal (log2 normalized intensity) was determined as 3.34.

Turning to AAGGGTGAAAAGATAGCTTGAGGCCAGCTC, the binding signal (log2 normalized intensity) was -1.3.

On to AACCACCACTGGGCAATTGGTTTCCGCTAA, for which the binding signal (log2 normalized intensity) is -1.39.

For the sequence GCCGGAGGGGAGGTTATCTCGGGGCTGGCA, the binding signal (log2 normalized intensity) was -1.28.

With CCCTGCCCTCAGGGAATCCTGCATTATCAG, the binding signal (log2 normalized intensity) was determined as 0.0972.

GCTGTAGTGTGTAAGTATGCTCACTGACCT: the binding signal (log2 normalized intensity) worked out at 3.61.

For the sequence CTAAGAGATTTGAATATGTACATGGACTTT, the binding signal (log2 normalized intensity) was 6.92.

Turning to CTATGTCCCTGACTGTGTGGCTTGCCTCTC, the binding signal (log2 normalized intensity) stood at 0.635.

For AGAAGGCAGCCGATTAACACAAAAAGGCAG, the binding signal (log2 normalized intensity) was -1.35.

Regarding CCACTTTGAATCAGGAGAGCATCTGAGTGT, the binding signal (log2 normalized intensity) came out at 0.742.

For the sequence GTGTGCTGAGAGTTGGAAAATGTCGTTTTC, the binding signal (log2 normalized intensity) came out at 0.865.

As to CTTGGGTATCAGATAGTCCAATGTCCAGAA, the binding signal (log2 normalized intensity) came to 4.27.

Regarding AGGGTGTTGTGGAATGTGCTTGGACCTGCT, the binding signal (log2 normalized intensity) was 2.38.

Regarding AGACAACCTTTGGTCACTTGTAAGATACTG, the binding signal (log2 normalized intensity) turned out to be 2.81.

For the sequence GAAAGAGCCCCTTTGTCCATTATCTCACTT, the binding signal (log2 normalized intensity) is 0.671.

As to TCAGCTGGTCCTTCAAGTGTGACCCTGAAC, the binding signal (log2 normalized intensity) amounted to 4.07.

Regarding CTCCATTTCCTTCTAGCTCCCCAATAGACA, the binding signal (log2 normalized intensity) was determined as 3.44.

CAGACCAGTAACCTAAGTCAGGAAACTGAC: the binding signal (log2 normalized intensity) was -1.29.

As for GCCTTTTATCCCTTTTGAGGCTGGAGGATC, the binding signal (log2 normalized intensity) was determined as 0.34.

As to TCACAATAGGGTTCAAACTCCTATGTGAAT, the binding signal (log2 normalized intensity) was determined as 2.02.

On to AGAATGGAGAAAACAACATTCCTTGTGTTT, for which the binding signal (log2 normalized intensity) stood at 0.48.

Turning to TACTTAGTGGCTCCTAGAATTATCCCACCC, the binding signal (log2 normalized intensity) is 2.57.

ACAAACCTTATCTCTCAAGGTTCCCAGCTA: the binding signal (log2 normalized intensity) was -1.28.

For TCCAAATCTAAGATATATCACCTGCCAGCT, the binding signal (log2 normalized intensity) was -1.37.

For GTACCTTGACCTTCTCTGTTAACCCTTTGC, the binding signal (log2 normalized intensity) came to 4.52.

Take CCTTGTGAGCAGGATTATAGTTTATCTACC: the binding signal (log2 normalized intensity) was 0.51.

As to ATGGATTTGATAGAGTGATAGCATGGTTTA, the binding signal (log2 normalized intensity) came to 0.979.

For AAGGCAAAAGAGACAGGACTTTACAAAGTA, the binding signal (log2 normalized intensity) is -0.988.

As for AACCCTTGCACTGCTGGTTTTTGTCAAAGA, the binding signal (log2 normalized intensity) is 1.77.

For GCACCCCTGCCCCCATGTTGTTCAAGGGTC, the binding signal (log2 normalized intensity) came out at 4.83.

With TGCATAAGGACCTCCTGAGATAGGTATGAT, the binding signal (log2 normalized intensity) is -1.26.

Regarding TACACTGCCTCCTTCAAGGATTAGCAGATA, the binding signal (log2 normalized intensity) was -1.18.

Take TCTGGAATGTGGAGAATGGCAAGAGATAAG: the binding signal (log2 normalized intensity) was -1.28.

On to TGATGCCCTTTGGCCTTTCTAATTATTTAC, for which the binding signal (log2 normalized intensity) was 4.4.

Regarding CTTATCAGCAGATAAGGGCAGAGAGGCTGC, the binding signal (log2 normalized intensity) was -1.31.

As to AAAAGACCAAAAAGGCTAACTTACCCGCTT, the binding signal (log2 normalized intensity) is -1.27.

With CAACTCCAAAGTCCAAAGTCCAGTCTTATC, the binding signal (log2 normalized intensity) was found to be 8.47.

As for GAGAAGGGTGGGAATTGGGATAGCAAAGGG, the binding signal (log2 normalized intensity) was -1.27.

Consider TTCAAAGTTCAGTTTGATTACTTGGCACTT, for which the binding signal (log2 normalized intensity) amounted to 1.51.
